# In all, about 360,000 compounds went through this assay and about 7,500 (2.1%) were called active. The inconclusive results got no clear call from the source; some entries with a clear call stand among them for comparison. Calls follow the shape of the dose curve; as a rule, active = well fitted cell-killing curve with a large enough effect; inconclusive = small, poorly fitted or top-dose-only effect, or effect the other way, or another doubt; inactive = no such curve, though single readings can be large or run the other way. Potencies of inconclusive entries are left out as doubtful fits.
# Experiment: qHTS for induction of synthetic lethality in tumor cells producing 2HG: qHTS for the HT-1080-IDH1KD cell line;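 as to activity, negative = toxicity: 0% = DMSO wells and -100% = cell-free medium wells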
# Settings: HT-1080 IDH1 knockdown viability, ATP luminescence, 48 h; activity, negative = toxicity: at 46.1 µM (top of the series) unless noted
# In short: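 HT-1080-IDH1KD cells (IDH1 knocked down), 750/well in RPMI with 5% FBS, treated with compound 48 h at 37 degrees C. Viability by CellTiter-Glo luminescence, normalised to DMSO and no-cell wells; concentration-response curves classed.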
# Potency is read from the fitted curve at half-maximal effect; tags tell the direction and shape of the fitted curve.
SMILES,Potency,"activity, negative = toxicity"
Oc1ccc(/C=N/NC(=S)N/N=C/c2ccc(O)cc2)cc1,"inconclusive [cytotoxic, partial curve]",
CCOC(=O)C1(CCOc2ccccc2)CCN(Cc2ccc(C#CCCO)cc2)CC1,"inconclusive [cytotoxic, single point]",
CCCCN(C(=O)c1ccc(C#N)cc1)c1c(N)n(CCC)c(=O)[nH]c1=O,inactive,
O=C(c1ccccc1)C(CN1CCCCC1)c1ccccc1 (stereo not given),active: 10.3 µM,
COCCCNc1nc2c(-c3cccc(C)c3)nnn2c2ccc(Cl)cc12,"inconclusive [cytotoxic, single point]",
Cc1cc(C)cc(NS(=O)(=O)c2ccc3[nH]cc(C(=O)N4CCc5ccccc54)c(=O)c3c2)c1,active: 23.1 µM,
COc1ccc(N(CC(=O)Nc2cc(C)on2)S(=O)(=O)c2cc(C)ccc2C)cc1,"inconclusive [cytotoxic, partial curve]",
Cc1cc(C)cc(NC(=S)NCc2cccn2C)c1,"inconclusive [cytotoxic, single point]",
CC(C)(C)c1ccc(C(=O)Nc2nnc(Cc3c[nH]c4ccccc34)s2)cc1,"inconclusive [cytotoxic, full curve]",
O=S1(=O)N[C@H](Cc2ccccc2)COc2cccc(N3CCN(Cc4ccccc4F)CC3)c21,"inconclusive [cytotoxic, single point]",
CCN(CC)S(=O)(=O)c1cccc(C(=O)N[C@H](C(=O)Nc2nc3ccc(F)cc3s2)C(C)C)c1,"inconclusive [cytotoxic, single point]",
Cc1cc(NC(=O)COC(=O)c2ccccc2S(=O)(=O)N(C)c2ccccc2)no1,"inconclusive [cytotoxic, partial curve, poor fit]",
Cc1nc(Nc2ccccc2)c2oc3ccc(Cl)cc3c2n1,"inconclusive [cytotoxic, partial curve]",
COc1cc(S(=O)(=O)Nc2ccccc2N2CCCCC2)ccc1NC(C)=O,active: 8.2 µM,
CCn1c(CNc2ccc(C(=O)O)cc2)nc2ccccc21,"inconclusive [cytotoxic, single point]",
O=C1C(Cl)=C(Oc2ccccc2)C(=O)c2ccccc21,active: 2.59 µM,
COc1cccc(/C=N/Nc2ccc(C(=O)O)cc2)c1O,active: 20.6 µM,
O/N=C/c1cc(Br)cc(Br)c1OCc1ccccc1,"inconclusive [cytotoxic, single point]",
CC1CN(C(=O)CNC(=O)COc2ccccc2)CC(C)O1 (stereo not given),inactive,
COc1cc(CNC(C)c2ccccc2)cc(Br)c1OCc1ccc(F)cc1 (stereo not given),"inconclusive [cytotoxic, single point]",
CC(CNC(=O)CC[C@H]1O[C@@H](n2ccc(=O)[nH]c2=O)[C@H](O)[C@@H]1O)c1ccccc1 (stereo not given in full),inactive,
Cn1c(N)c(C(=O)Nc2ccc3ccccc3c2)sc1=S,,inconclusive: 14.3%
COc1ccc(CN(C(=O)c2nsc(Cl)c2Cl)C(C(=O)NC2CCCCC2)c2ccc(OC)cc2)cc1 (stereo not given),"inconclusive [cytotoxic, partial curve]",
CC(CCc1ccccc1)NC(=O)COC(=O)c1ccc(S(C)(=O)=O)c([N+](=O)[O-])c1 (stereo not given),active: 7.31 µM,

SMILES,Potency,"activity, negative = toxicity"
O=C(N/N=C/c1cc2c3c(c1O)CCCN3CCC2)c1ccccc1O,"inconclusive [cytotoxic, full curve]",
COc1cccc(-c2cn3nc(C)c(C)nc3n2)c1,"inconclusive [cytotoxic, single point]",
Cc1noc(/C=C/c2nn(C)cc2Cl)c1[N+](=O)[O-],"inconclusive [cytotoxic, single point]",
Cn1ccnc1SCC(=O)c1ccc(Br)cc1,"inconclusive [cytotoxic, single point]",
O=C(c1ccco1)N1CCN(C(=O)c2ccco2)C1=S,active: 16.4 µM,
Cc1cc[n+](C(C)C(=O)c2ccc(-c3ccccc3)cc2)cc1 (stereo not given),"inconclusive [cytotoxic, partial curve]",
CC(C)(C)CN1CCN(Cc2nc(-c3ccc(F)cc3)cs2)CC1CCO (stereo not given),"inconclusive [cytotoxic, partial curve]",
CCOc1ccc(S(=O)(=O)N2CCCCCC2)c2ccccc12,"inconclusive [cytotoxic, partial curve, poor fit]",
Cc1ccc(NC(CC(=O)c2ccccc2)c2ccc(F)cc2)cc1 (stereo not given),"inconclusive [cytotoxic, partial curve]",
N=C1C(c2ccccc2)=C(O)CN1c1cccc(S(=O)(=O)NCc2ccco2)c1,inactive,
O=C(NCCc1ccc(Cl)cc1)C1CCN(S(=O)(=O)c2cccc3nonc23)CC1,"inconclusive [cytotoxic, single point]",
Cc1ccc(S(=O)(=O)N2CCN(c3ncnc4sccc34)CC2)cc1C,"inconclusive [cytotoxic, single point]",
O=c1c2ccccc2c2ccccc2c(=O)n1Nc1ccccc1,active: 13 µM,
CCn1c(=O)c2[nH]c(Cl)nc2n(CC)c1=O,"inconclusive [cytotoxic, partial curve]",
CCn1c(C)nc2cc(C(=O)N/N=C(\C)c3ccc(OC)cc3O)ccc21,active: 14.6 µM,
CCCn1c2c(c(O)c(C(=O)Nc3ncccc3O)c1=O)CCCC2,"inconclusive [cytotoxic, single point]",
COc1ccc(CCCNC(=O)C2CCC(=O)N(CC3CCCCC3)C2)cc1 (stereo not given),inactive,
Cc1ccccc1CS(=O)(=O)c1nnc([C@H](CC(C)C)NC(=O)OC(C)(C)C)o1,active: 3.98 µM,
Cc1ccc(S(=O)(=O)N(CC(=O)NCC2CCCO2)C2CCCCC2)cc1 (stereo not given),inactive,
COc1ccc(S(=O)(=O)N(CC(=O)NCCC(C)C)c2ccccc2)cc1OC,inactive,
CN(C)c1ccc(C(=O)n2nnc3ccccc32)cc1,active: 15.8 µM,
CCCN(CC(=O)Nc1cc(C)on1)CC(=O)Nc1ccccc1C,inactive,
Cn1cc([N+](=O)[O-])c(C(=O)Nc2cc(Oc3ccccc3)cc([N+](=O)[O-])c2)n1,active: 6.51 µM,
N=C1SC(CC(=O)Nc2ccc([N+](=O)[O-])cc2)C(=O)N1c1ccccc1 (stereo not given),"inconclusive [cytotoxic, partial curve]",

SMILES,Potency,"activity, negative = toxicity"
CN(C)c1ccc(-c2[nH][nH]c(=O)c2NC(=O)c2ccccn2)cc1,active: 20.6 µM,
O=C(NCCN1C(=O)S/C(=C\c2ccccc2F)C1=O)C1CCN(S(=O)(=O)c2cccs2)CC1,inactive,
Cc1nc([N+](=O)[O-])c(Br)n1Cc1ccc(Cl)c(Cl)c1,"inconclusive [cytotoxic, single point]",
Clc1ccc(CSC2=NCCCN2)cc1Cl,"inconclusive [cytotoxic, partial curve]",
Fc1ccccc1-c1ccc(/C=N/Nc2nc3ccccc3[nH]2)o1,active: 25.9 µM,
COc1ccc(CCNC(=O)c2cc(-c3cccs3)on2)cc1OC,"inconclusive [cytotoxic, single point]",
COc1ccc(Cn2c(=O)[nH]c3cc(C(=O)NCCCN4CCCCC4)ccc3c2=O)cc1,"inconclusive [cytotoxic, single point]",
CC(=O)Nc1ccc(C2=NNC(=Nc3cccc(S(=O)(=O)N(C)C)c3)SC2)cc1,"inconclusive [cytotoxic, single point]",
CC(C)C[C@H]1CN([C@@H](Cc2ccccc2)CN2CCC[C@@H]2CN2C(=O)C(=O)NC[C@@H]2Cc2ccccc2)C(=O)C(=O)N1CCc1ccccc1,"inconclusive [cytotoxic, single point]",
Cn1c(CCN2CCN(c3ccccn3)CC2)nc2cc(NC(=O)COc3ccccc3)ccc21,inactive,
Cc1nc(Br)c(Br)n1Cc1ccccc1,"inconclusive [cytotoxic, full curve]",
CCCCNc1c(-c2cccc(-c3ccc(OC)cc3)c2)nc2cc(C)ccn12,"inconclusive [cytotoxic, single point]",
COc1ccc(-c2cc(C(=O)Nc3c(C)nn(Cc4ccc(Cl)cc4)c3C)no2)cc1,"inconclusive [cytotoxic, single point]",
Cc1ccccc1NC(=O)c1nc(S(C)(=O)=O)ncc1Cl,active: 14.6 µM,
Oc1ccccc1C=NNc1nc2ccccc2s1,active: 8.2 µM,
CCCCNC(=S)N=Nc1c(O)[nH]c2ccccc12,"inconclusive [cytotoxic, single point]",
COc1ccc(NC(=O)C2CCCN(S(=O)(=O)c3cccc4nonc34)C2)cc1 (stereo not given),"inconclusive [cytotoxic, single point]",
COc1ccc(OC)c(S(=O)(=O)n2nc(-c3ccccc3)cc2N)c1,inactive,
Fc1ccc(NC(=S)Nc2ccc(Br)cc2)cc1,"inconclusive [cytotoxic, single point]",
CC1C(C)N(C(=O)CCl)c2ccccc2N1C(=O)CCl (stereo not given),"inconclusive [cytotoxic, single point]",
Cc1ccc(-n2nnnc2SCC(=O)NC(=O)Nc2ccc3c(c2)OCCO3)cc1,,inconclusive: 31.9%
CCN(CC)S(=O)(=O)c1ccc2oc(C(=O)NCc3ccc(C)cc3)c(C)c2c1,"inconclusive [cytotoxic, single point]",

# From PubChem BioAssay AID686971 (National Center for Advancing Translational Sciences (NCATS), 2013)
